Where “and” joins values, the source holds several entries; their conditions need not be identical. Equal values may be shown once. Some of the results follow. These are further read-outs of the screen, such as a control signal, another cell line or another target. No call is given for them. The list favours compounds with an active or inconclusive main result.

This test in a line: inhibitors of triacylglycerol accumulation, primary screen, cell-based, uHTS, fluorescence, H9c2 (AID 651582). The conditions noted are these: H9c2 cells, Nile Red lipid (TAG) fluorescence; measured here:; at 12.5 µM; cells loaded with 200 µM oleic acid.
As for `Nc1nc(CCl)nc(N(c2ccccc2)c2ccccc2)n1`, the DAPI nuclei signal change (viability), lower = more cytotoxic was -42.3%.

As to `CCOC(=O)c1ccc(NC(=O)c2nc[nH]c2C(=O)NCCNC(=O)c2[nH]cnc2C(=O)Nc2ccc(C(=O)OCC)cc2)cc1`, the DAPI nuclei signal change (viability), lower = more cytotoxic stood at 1.44%.

Regarding `COc1cc2sc(-c3ccccc3OC)c(-c3ccc(OCCN4CCCCC4)cc3)c2cc1OC`, the DAPI nuclei signal change (viability), lower = more cytotoxic came out at 0.0807%. As for `CCOc1ccc(CCNC(=O)c2cc3sc(Cl)cc3n2C)cc1OCC`, the DAPI nuclei signal change (viability), lower = more cytotoxic turned out to be 1.72%. For the compound `Cc1cc(C)cc(C(=O)N2CC(=O)Nc3ccccc32)c1`, the DAPI nuclei signal change (viability), lower = more cytotoxic is -28.4%.

Take `COCCOC(=O)c1[nH]c2c(c1C)C(=O)CC(c1ccco1)C2` (stereo not given): the DAPI nuclei signal change (viability), lower = more cytotoxic was -44.1%. Regarding `Nc1c2ccccc2nc2ccccc12`, the DAPI nuclei signal change (viability), lower = more cytotoxic was 24.4% and 2.96%.

For `Clc1cccc(-c2cc3nc4c(c(N5CCN(c6cnccn6)CC5)n3n2)CCCC4)c1`, the DAPI nuclei signal change (viability), lower = more cytotoxic was 5.35%. Consider `COC1C(CO)OC(n2c3c(Cl)cccc3c3c4c(c5c6cccc(Cl)c6[nH]c5c32)C(=O)NC4=O)C(O)C1O` (stereo not given), for which the DAPI nuclei signal change (viability), lower = more cytotoxic was -49%.

As to `c1ccc2c(c1)NC(c1ccncc1)n1c-2nc2ccccc21` (stereo not given), the DAPI nuclei signal change (viability), lower = more cytotoxic is -6.3%.

On to `CO/N=C/C(=N\Nc1ccc(C)cc1)C(=O)c1ccc(OC)cc1`, for which the DAPI nuclei signal change (viability), lower = more cytotoxic was -44.7%.

For `Cc1ccc(NC2=Nc3ccccc3N3C2=Nc2c(c(C)nn2-c2ccccc2)C3c2ccc(O)c(O)c2)cc1` (stereo not given), the DAPI nuclei signal change (viability), lower = more cytotoxic was 74.8%. Regarding `CCCCCCCCCCCCCCCC[n+]1cccc(C(=O)N(CC)CC)c1`, the DAPI nuclei signal change (viability), lower = more cytotoxic was 2.52%. Regarding `Nc1nc(-c2ccccc2)cc(N2CCCCC2)n1`, the DAPI nuclei signal change (viability), lower = more cytotoxic is -31.5%. Under `S=C(N/N=C/c1cccs1)NC1CC2CCC1C2` (stereo not given) stands -0.213%; under `CCCCCC(=C/c1ccccc1)/C=N/Nc1ccc(S(=O)(=O)N2CCOCC2)cc1[N+](=O)[O-]`, -15.1%; under `COc1ccc(-c2nn(-c3ccccc3)cc2/C=C/C(=O)OCC(=O)Nc2ccccc2C#N)cc1`, -31.8%.

On to `CCOc1ccc(CCNC(=O)CN2CCN(Cc3ccccc3F)C2=O)cc1OCC`, for which the DAPI nuclei signal change (viability), lower = more cytotoxic was -4.47%. For `COc1cc(-c2nc(-c3ccc(NC(=O)c4ccc(Br)o4)cc3)no2)cc(OC)c1OC`, the DAPI nuclei signal change (viability), lower = more cytotoxic stood at 6.55%. With `COc1ccccc1/C=C/C(=O)NCC(=O)N/N=C/c1cc(Br)ccc1OC`, the DAPI nuclei signal change (viability), lower = more cytotoxic is -16.4%. Consider `COC(=O)[C@@]1(Cc2ccc(F)cc2)[C@H]2c3cc(C(=O)N4CCCC4)n(CCCNc4ncc(C(F)(F)F)cc4Cl)c3C[C@H]2CN1C(=O)c1ccccc1`, for which the DAPI nuclei signal change (viability), lower = more cytotoxic was -6.08%.

For the compound `Cc1ccc(-n2cc(CNCCCn3cccn3)c(-c3cccc(C)c3)n2)cc1`, the DAPI nuclei signal change (viability), lower = more cytotoxic was -2.62%. With `CCOC(=O)c1cc(CC)sc1NC(=O)c1cc(OC)c(OC)c(OC)c1`, the DAPI nuclei signal change (viability), lower = more cytotoxic was 0.0743%. Under `COc1ccccc1-c1sc2cc3c(cc2c1-c1ccc(OCCN2CCCCC2)cc1)OCO3` stands -0.797%; under `COCCOC(=O)c1[nH]c2c(c1C)C(=O)CC(c1ccccc1)C2` (stereo not given), -43.6%; under `CNC(=O)c1ccc(-c2sc3nc(N4CCOCC4)c4c(c3c2N)CC(C)(C)OC4)o1`, 64.8%. Under `COc1ccc(-c2nc3ccc(Cl)cn3c2NC2CCCCC2)cc1SC1CCCCC1` stands 60.8%; under `Cc1c(C(=O)NCCC2=CCCCC2)oc2ccc(S(=O)(=O)N3CCC4(CC3)OCCO4)cc12`, -2.16%. On to `CCOc1ccc(N(CC(=O)Nc2ccccc2C)S(=O)(=O)c2c(C)noc2C)cc1`, for which the DAPI nuclei signal change (viability), lower = more cytotoxic is -39.9%.

For the compound `CCCCCCSc1cc(-c2nc3ccc(Cl)cn3c2NC2CCCCC2)ccc1OC`, the DAPI nuclei signal change (viability), lower = more cytotoxic is 92.5%. Under `Cc1ccc(-n2nc(C)c3c(C)c(CCC(=O)Nc4ccc(CN5CCCC5)cc4)c(C)nc32)cc1` stands -16.3%; under `CCOC(=O)c1cc(-c2ccccc2)sc1NC(=O)COC(=O)c1cccc(S(N)(=O)=O)c1`, -37.6%; under `C=CCC[C@H](Cc1ccc(F)cc1)C(=O)OC[C@@H](Cc1c[nH]c2ccccc12)NC(=O)[C@H](CC=C)CC(=O)N(CCO)Cc1ccccc1`, -11.6%. On to `O=[N+]([O-])c1ccc(N/N=C\c2cccn2-c2ccccc2)nc1`, for which the DAPI nuclei signal change (viability), lower = more cytotoxic was -22.9%. The result for `COc1ccc(C2=C(C=Nc3c(C)n(C)n(-c4ccccc4)c3=O)C(c3ccccc3C)c3ccccc3O2)cc1OC` (stereo not given) reads -10.9%; that for `COc1cc(-c2nc3c(c(C)nn3-c3ccccc3)c3cc(OC)c(OC)cc23)ccc1O`, 46.3%. Turning to `CN(Cc1ccccc1)C(=O)c1ccc(Nc2nc(C(N)Cc3ccccc3)cs2)nc1` (stereo not given), the DAPI nuclei signal change (viability), lower = more cytotoxic worked out at 7.67%. The result for `CC(/C=N/NC(=O)c1n[nH]c2c1CCC2)=C\c1ccccc1` reads -18%; that for `COc1ccc(Nc2oc(-c3ccc(Cl)cc3)nc2C#N)cc1`, 4.9%; that for `CCOc1c(Cl)cc(CNc2ccc(N3CCCC3)cc2)cc1OC`, -9.19%. For the compound `COc1cc(C(=O)NC2CCN(C)CC2)ccc1Nc1ncc2c(n1)N(C1CCCCC1)CCC(=O)N2C`, the DAPI nuclei signal change (viability), lower = more cytotoxic is -27.5%. On to `CCOc1ccc(CCNC(=O)CCc2nc(-c3ccc(OC)cc3)no2)cc1OCC`, for which the DAPI nuclei signal change (viability), lower = more cytotoxic was 0.264%.

As to `COC(=O)c1ccc(NC(=O)COc2ccc(C3C(C#N)=C(N)Oc4c3ccc3ccccc43)cc2OC)cc1` (stereo not given), the DAPI nuclei signal change (viability), lower = more cytotoxic was -13.5%.

With `NCCC(=O)N1c2ccccc2Sc2ccc(Cl)cc21`, the DAPI nuclei signal change (viability), lower = more cytotoxic is -32.5%. In the case of `CCC[C@@H](CN[C@@H](CNC)[C@H](C)CC)NCC1CCC(C(C)(C)C)CC1` (stereo not given in full), the DAPI nuclei signal change (viability), lower = more cytotoxic is -40.5%.
